Assay results: patent US9428499B2, “Heterocyclyl compounds as MEK inhibitors” (LUPIN LIMITED, priority 2012, dated 2016)
Some results were stated once for a whole list of compounds, not compound by compound.

Biological target: MEK enzyme
Test: MEK kinase inhibition (KinaseGlo luminescence)
Format: biochemical
Conditions: ERK substrate, 1% DMSO, read-out: MEK kinase inhibition activity of the compounds (IC50)

SMILES | IC50
Cc1c(=O)n(C)c(Nc2ccc(I)cc2F)c2c(=O)[nH]c(=O)n(-c3cccc(C(=O)N4CCC(O)CC4)c3)c12 [Compound 18, 5((2-fluoro-4-iodophenyl)amino)-1-(3-(4-hydroxypiperidine-1-carbonyl)phenyl)-6,8-dimethylpyrido[4,3-d]pyrimidine-2,4,7(1H,3H,6H)-trione] | 1 to 499 nM
CNC(=O)CCc1cccc(-n2c(=O)[nH]c(=O)c3c(Nc4ccc(I)cc4F)n(C)c(=O)c(C)c32)c1 [Compound 15, 3-(3-(5-((2-fluoro-4-iodophenyl)amino)-6,8-dimethyl-2,4,7-trioxo-3,4,6,7-tetrahydropyrido[4,3-d]pyrimidin-1(2H)-yl)phenyl)-N-methylpropanamide] | 1 to 499 nM
Cc1c(=O)n(C)c(Nc2ccc(I)cc2F)c2c(=O)n(C)c(=O)n(-c3cccc(OCC(N)=O)c3)c12 [Compound 57, 2-(3-(5-((2-fluoro-4-iodophenyl)amino)-3,6,8-trimethyl-2,4,7-trioxo-3,4,6,7-tetrahydropyrido[4,3-d]pyrimidin-1(2H)-yl)phenoxy)acetamide] | 1 to 499 nM
CCn1c(=O)c2c(Nc3ccc(I)cc3F)n(C)c(=O)c(C)c2n(-c2cccc(CC(=O)NC3CC3)c2)c1=O [Compound 59, N-cyclopropyl-2-(3-(3-ethyl-5-((2-fluoro-4-iodophenyl)amino)-6,8-dimethyl-2,4,7-trioxo-3,4,6,7-tetrahydropyrido[4,3-d]pyrimidin-1(2H)-yl)phenyl)acetamide] | 500 to 1500 nM
Cc1c(=O)n(C)c(Nc2ccc(I)cc2F)c2c(=O)n(C)c(=O)n(-c3cccc(C(=O)N4CCC4)c3)c12 [Compound 56, 1-(3-(azetidine-1-carbonyl)phenyl)-5-((2-fluoro-4-iodophenyl)amino)-3,6,8-trimethylpyrido[4,3-d]pyrimidine-2,4,7(1H,3H,6H)-trione] | 500 to 1500 nM
Cc1c(=O)n(C)c(Nc2ccc(I)cc2F)c2c(=O)n(C)c(=O)n(-c3cccc(CC(=O)N4CCC4)c3)c12 [Compound 46, 1-(3-(2-(azetidin-1-yl)-2-oxoethyl)phenyl)-5-((2-fluoro-4-iodophenyl)amino)-3,6,8-trimethylpyrido[4,3-d]pyrimidine-2,4,7(1H,3H,6H)-trione] | 1 to 499 nM
Cc1c(=O)n(C)c(Nc2ccc(I)cc2F)c2c(=O)n(C3CC3)c(=O)n(-c3cccc(C(=O)N4CCCC4)c3)c12 [Compound 27, 3-cyclopropyl-5-((2-fluoro-4-iodophenyl)amino)-6,8-dimethyl-1-(3-(pyrrolidine-1-carbonyl)phenyl)pyrido[4,3-d]pyrimidine-2,4,7(1H,3H,6H)-trione] | 1 to 499 nM
Cc1c(=O)n(C)c(Nc2ccc(I)cc2F)c2c(=O)n(C3CC3)c(=O)n(-c3cccc(CCC(=O)NC4CC4)c3)c12 [Compound 40, N-cyclopropyl-3-(3-(3-cyclopropyl-5-((2-fluoro-4-iodophenyl)amino)-6,8-dimethyl-2,4,7-trioxo-3,4,6,7-tetrahydropyrido[4,3-d]pyrimidin-1(2H)-yl)phenyl)propanamide] | 1 to 499 nM
Cc1c(=O)n(C)c(Nc2ccc(I)cc2F)c2c(=O)n(C)c(=O)n(-c3cccc(C(=O)N4CCOCC4)c3)c12 [Compound 63, 5-((2-fluoro-4-iodophenyl)amino)-3,6,8-trimethyl-1-(3-(morpholine-4-carbonyl)phenyl)pyrido[4,3-d]pyrimidine-2,4,7(1H,3H,6H)-trione] | 1 to 499 nM
Cc1c(=O)n(C)c(Nc2ccc(I)cc2F)c2c(=O)n(C3CC3)c(=O)n(-c3cccc(C(=O)N4CCS(=O)(=O)C4)c3)c12 [Compound 38, 3-cyclopropyl-1-(3-(1,1-dioxidothiazolidine-3-carbonyl)phenyl)-5-((2-fluoro-4-iodophenyl)amino)-6,8-dimethylpyrido[4,3-d]pyrimidine-2,4,7(1H,3H,6H)-trione] | 1 to 499 nM
CCn1c(=O)c2c(Nc3ccc(I)cc3F)n(C)c(=O)c(C)c2n(-c2cccc(CC(=O)N(C)C)c2)c1=O [Compound 67, 2-(3-(3-ethyl-5-((2-fluoro-4-iodophenyl)amino)-6,8-dimethyl-2,4,7-trioxo-3,4,6,7-tetrahydropyrido[4,3-d]pyrimidin-1(2H)-yl)phenyl)-N,N-dimethylacetamide] | 1 to 499 nM
Cc1c(=O)n(C)c(Nc2ccc(I)cc2F)c2c(=O)[nH]c(=O)n(-c3cccc(CCC(=O)NC4CC4)c3)c12 [Compound 19, N-cyclopropyl-3-(3-(5-((2-fluoro-4-iodophenyl)amino)-6,8-dimethyl-2,4,7-trioxo-3,4,6,7-tetrahydropyrido[4,3-d]pyrimidin-1(2H)-yl)phenyl)propanamide] | 1 to 499 nM
Cc1c(=O)n(C)c(Nc2ccc(I)cc2F)c2c(=O)n(C)c(=O)n(-c3cccc(CC(=O)NC4COC4)c3)c12 [Compound 50, 2-(3-(5-((2-fluoro-4-iodophenyl)amino)-3,6,8-trimethyl-2,4,7-trioxo-3,4,6,7-tetrahydropyrido[4,3-d]pyrimidin-1(2H)-yl)phenyl)-N-(oxetan-3-yl)acetamide] | 1 to 499 nM
Cc1c(=O)n(C)c(Nc2ccc(I)cc2F)c2c(=O)[nH]c(=O)n(-c3cccc(OC(C)(C)C(N)=O)c3)c12 [Compound 20, 2-(3-(5-((2-fluoro-4-iodophenyl)amino)-6,8-dimethyl-2,4,7-trioxo-3,4,6,7-tetrahydropyrido[4,3-d]pyrimidin-1(2H)-yl)phenoxy)-2-methylpropanamide] | 1 to 499 nM
Cc1c(=O)n(C)c(Nc2ccc(I)cc2F)c2c(=O)[nH]c(=O)n(-c3cccc(OCC(N)=O)c3)c12 [Compound 16, 2-(3-(5-((2-fluoro-4-iodophenyl)amino)-6,8-dimethyl-2,4,7-trioxo-3,4,6,7-tetrahydropyrido[4,3-d]pyrimidin-1(2H)-yl)phenoxy)acetamide] | 1 to 499 nM
Cc1c(=O)n(C)c(Nc2ccc(I)cc2F)c2c(=O)n(CC(=O)O)c(=O)n(-c3cccc(C(=O)NC4CC4)c3)c12 [Compound 74, 2-(1-(3-(cyclopropylcarbamoyl)phenyl)-5-((2-fluoro-4-iodophenyl)amino)-6,8-dimethyl-2,4,7-trioxo-1,2,6,7-tetrahydropyrido[4,3-d]pyrimidin-3(4H)-yl)acetic acid] | 1600 to 3000 nM
Cc1c(Nc2ccc(I)cc2F)c2c(=O)n(C3CC3)c(=O)n(-c3cccc(C(F)(F)C(N)=O)c3)c2n(C)c1=O [Compound 30, 2-(3-(3-cyclopropyl-5-((2-fluoro-4-iodophenyl)amino)-6,8-dimethyl-2,4,7-trioxo-3,4,7,8-tetrahydropyrido[2,3-d]pyrimidin-1(2H)-yl)phenyl)-2,2-difluoroacetamide] | 1 to 499 nM
CNC(=O)CCc1cccc(-n2c(=O)n(C3CC3)c(=O)c3c(Nc4ccc(I)cc4F)n(C)c(=O)c(C)c32)c1 [Compound 36, 3-(3-(3-cyclopropyl-5-((2-fluoro-4-iodophenyl)amino)-6,8-dimethyl-2,4,7-trioxo-3,4,6,7-tetrahydropyrido[4,3-d]pyrimidin-1(2H)-yl)phenyl)-N-methylpropanamide] | 500 to 1500 nM
Cc1c(=O)n(C)c(Nc2ccc(I)cc2F)c2c(=O)[nH]c(=O)n(-c3cccc(C(C)(C)C(N)=O)c3)c12 [Compound 9, 2-(3-(5-((2-fluoro-4-iodophenyl)amino)-6,8-dimethyl-2,4,7-trioxo-3,4,6,7-tetrahydropyrido[4,3-d]pyrimidin-1(2H)-yl)phenyl)-2-methylpropanamide] | 1 to 499 nM
Cc1c(Nc2ccc(I)cc2F)c2c(=O)[nH]c(=O)n(-c3cccc(C(F)(F)C(N)=O)c3)c2n(C)c1=O [Compound 11, 2,2-difluoro-2-(3-(5-((2-fluoro-4-iodophenyl)amino)-6,8-dimethyl-2,4,7-trioxo-3,4,7,8-tetrahydropyrido[2,3-d]pyrimidin-1(2H)-yl)phenyl)acetamide] | 1 to 499 nM
Cc1c(=O)n(C)c(Nc2ccc(I)cc2F)c2c(=O)n(C)c(=O)n(-c3cccc(C(O)C(N)=O)c3)c12 (stereo not drawn) [Compound 47, 2-(3-(5-((2-fluoro-4-iodophenyl)amino)-3,6,8-trimethyl-2,4,7-trioxo-3,4,6,7-tetrahydropyrido[4,3-d]pyrimidin-1(2H)-yl)phenyl)-2-hydroxyacetamide] | 500 to 1500 nM
Cc1c(=O)n(C)c(Nc2ccc(I)cc2F)c2c(=O)n(C)c(=O)n(-c3cccc([C@@H](O)C(N)=O)c3)c12 [Compound 75, (R)-2-(3-(5-((2-fluoro-4-iodophenyl)amino)-3,6,8-trimethyl-2,4,7-trioxo-3,4,6,7-tetrahydropyrido[4,3-d]pyrimidin-1(2H)-yl)phenyl)-2-hydroxyacetamide] | 500 to 1500 nM
Cc1c(=O)n(C)c(Nc2ccc(I)cc2F)c2c(=O)n(C)c(=O)n(-c3cccc(C(=O)NC4CCOCC4)c3)c12 [Compound 52, 3-(5-((2-fluoro-4-iodophenyl)amino)-3,6,8-trimethyl-2,4,7-trioxo-3,4,6,7-tetrahydropyrido[4,3-d]pyrimidin-1(2H)-yl)-N-(tetrahydro-2H-pyran-4-yl)benzamide] | 500 to 1500 nM
CCn1c(=O)c2c(Nc3ccc(I)cc3F)n(C)c(=O)c(C)c2n(-c2cccc(CCC(N)=O)c2)c1=O [Compound 61, 3-(3-(3-ethyl-5-((2-fluoro-4-iodophenyl)amino)-6,8-dimethyl-2,4,7-trioxo-3,4,6,7-tetrahydropyrido[4,3-d]pyrimidin-1(2H)-yl)phenyl)propanamide] | 1 to 499 nM
Cc1c(=O)n(C)c(Nc2ccc(I)cc2F)c2c(=O)n(C)c(=O)n(-c3cccc(C(C)(C)C(N)=O)c3)c12 [Compound 43, 2-(3-(5-((2-fluoro-4-iodophenyl)amino)-3,6,8-trimethyl-2,4,7-trioxo-3,4,6,7-tetra hydropyrido[4,3-d]pyrimidin-1(2H)-yl)phenyl)-2-methylpropanamide] | 1 to 499 nM
Cc1c(=O)n(C)c(Nc2ccc(I)cc2F)c2c(=O)n(CC(O)CO)c(=O)n(-c3cccc(C(=O)NC4CC4)c3)c12 (stereo not drawn) [Compound 73, N-cyclopropyl-3-(3-(2,3-dihydroxypropyl)-5-((2-fluoro-4-iodophenyl)amino)-6,8-dimethyl-2,4,7-trioxo-3,4,6,7-tetrahydropyrido[4,3-d]pyrimidin-1 (2H)-yl)benzamide] | 1 to 499 nM
Cc1c(=O)n(C)c(Nc2ccc(I)cc2F)c2c(=O)n(C3CC3)c(=O)n(-c3cccc(C(O)C(N)=O)c3)c12 (stereo not drawn) [Compound 32, 2-(3-(3-cyclopropyl-5-((2-fluoro-4-iodophenyl)amino)-6,8-dimethyl-2,4,7-trioxo-3,4,6,7-tetrahydropyrido[4,3-d]pyrimidin-1(2H)-yl)phenyl)-2-hydroxyacetamide] | 1 to 499 nM
